According to the supplement of paper PMC8728848:
The other results are listed elsewhere or left out.

How the values were obtained:
Experiment in all cases: glycan array binding signal (z-score within array); higher = stronger binding
Details in all cases: glycan notation: IUPAC condensed, linker removed
[1] = target: Gal(b1-4)GlcNAc(b1-2)Man(a1-6)[GlcNAc(b1-2)Man(a1-3)]Man(b1-4)GlcNAc(b1-4)GlcNAc
Outline: (§1)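 Glycan array data were curated from 3228 arrays in the Consortium for Functional Glycomics database and kept only where the protein sequence was available. Glycan names were converted to IUPAC-condensed notation, and columns mapping to the same glycan were averaged. The binding signal is a within-array Z-score, averaged across arrays of the same protein sequence at different concentrations or buffers and across linkers. Negative Z-scores can be read as non-binding.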

[2] = target: Gal(b1-4)GlcNAc(b1-2)Man(a1-6)[Man(a1-3)]Man(b1-4)GlcNAc(b1-4)GlcNAc
Outline: as §1

[3] = target: Gal(b1-4)GlcNAc(b1-2)[Gal(b1-4)GlcNAc(b1-4)]Man(a1-3)[Gal(b1-4)GlcNAc(b1-2)Man(a1-6)]Man(b1-4)GlcNAc(b1-4)GlcNAc
Outline: as §1

[4] = target: Gal(b1-4)GlcNAc(b1-2)[Gal(b1-4)GlcNAc(b1-4)]Man(a1-3)[Gal(b1-4)GlcNAc(b1-2)[Gal(b1-4)GlcNAc(b1-6)]Man(a1-6)]Man(b1-4)GlcNAc(b1-4)GlcNAc
Outline: as §1

[5] = target: Gal(b1-4)GlcNAc(b1-2)[Gal(b1-4)GlcNAc(b1-4)]Man(a1-3)[GlcNAc(b1-4)][Gal(b1-4)GlcNAc(b1-2)Man(a1-6)]Man(b1-4)GlcNAc(b1-4)GlcNAc
Outline: as §1

[6] = target: Gal(b1-4)GlcNAc(b1-2)[Gal(b1-4)GlcNAc(b1-4)]Man(a1-3)[GlcNAc(b1-4)][Gal(b1-4)GlcNAc(b1-2)[Gal(b1-4)GlcNAc(b1-6)]Man(a1-6)]Man(b1-4)GlcNAc(b1-4)GlcNAc
Outline: as §1

[7] = target: Gal(b1-4)GlcNAc(b1-2)[Gal(b1-4)GlcNAc(b1-6)]Man(a1-6)[Gal(b1-4)GlcNAc(b1-2)Man(a1-3)]Man(b1-4)GlcNAc(b1-4)GlcNAc
Outline: as §1

[8] = target: Gal(b1-4)GlcNAc(b1-2)[Gal(b1-4)GlcNAc(b1-6)]Man(a1-6)[Gal(b1-4)GlcNAc(b1-2)Man(a1-3)]Man(b1-4)GlcNAc(b1-4)[Fuc(a1-6)]GlcNAc
Outline: as §1

[9] = target: Gal(b1-4)GlcNAc(b1-2)[Gal(b1-4)GlcNAc(b1-6)]Man(a1-6)[GlcNAc(b1-4)][Gal(b1-4)GlcNAc(b1-2)Man(a1-3)]Man(b1-4)GlcNAc(b1-4)GlcNAc
Outline: as §1

[10] = target: Gal(b1-4)GlcNAc(b1-2)[Gal(b1-4)GlcNAc(b1-6)]Man(a1-6)[GlcNAc(b1-4)][Gal(b1-4)GlcNAc(b1-2)[Gal(b1-4)GlcNAc(b1-4)]Man(a1-3)]Man(b1-4)GlcNAc(b1-4)[Fuc(a1-6)]GlcNAc
Outline: as §1

[11] = target: Gal(b1-4)GlcNAc(b1-3)Gal(b1-3)GalNAc
Outline: as §1

[12] = target: Gal(b1-4)GlcNAc(b1-3)Gal(b1-3)GlcNAc
Outline: as §1

[13] = target: Gal(b1-4)GlcNAc(b1-3)Gal(b1-4)Glc
Outline: as §1

[14] = target: Gal(b1-4)GlcNAc(b1-3)Gal(b1-4)GlcNAc
Outline: as §1

[15] = target: Gal(b1-4)GlcNAc(b1-3)Gal(b1-4)GlcNAc(b1-2)Man(a1-3)[Gal(b1-4)GlcNAc(b1-3)Gal(b1-4)GlcNAc(b1-2)Man(a1-6)]Man(b1-4)GlcNAc(b1-4)GlcNAc
Outline: as §1

[16] = target: Gal(b1-4)GlcNAc(b1-3)Gal(b1-4)GlcNAc(b1-2)Man(a1-3)[Gal(b1-4)GlcNAc(b1-3)Gal(b1-4)GlcNAc(b1-2)Man(a1-6)]Man(b1-4)GlcNAc(b1-4)[Fuc(a1-6)]GlcNAc
Outline: as §1

[17] = target: Gal(b1-4)GlcNAc(b1-3)Gal(b1-4)GlcNAc(b1-2)[Gal(b1-4)GlcNAc(b1-3)Gal(b1-4)GlcNAc(b1-6)]Man(a1-6)[Gal(b1-4)GlcNAc(b1-3)Gal(b1-4)GlcNAc(b1-2)Man(a1-3)]Man(b1-4)GlcNAc(b1-4)GlcNAc
Outline: as §1

[18] = target: Gal(b1-4)GlcNAc(b1-3)Gal(b1-4)GlcNAc(b1-2)[Gal(b1-4)GlcNAc(b1-3)Gal(b1-4)GlcNAc(b1-6)]Man(a1-6)[Gal(b1-4)GlcNAc(b1-3)Gal(b1-4)GlcNAc(b1-2)Man(a1-3)]Man(b1-4)GlcNAc(b1-4)[Fuc(a1-6)]GlcNAc
Outline: as §1

B1: DC-ASGPR S+GEE (Homo sapiens) (protein)
chain: MTRTYENFQYLENKVKVQGFKNGPLPLQSLLQRLRSGPCHLLLSLGLGLLLLVIICVVGFQNSKFQRDLVTLRTDFSNFTSNTVAEIQALTSQGSSLEETIASLKAEVEGFKQERQAVHSEMLLRVQQLVQDLKKLTCQVATINNNGEEASTEGTCCPVNWVEHQDSCYWFSHSGMSWAEAEKYCQLKNAHLVVINSREEQNFVQKYLGSAYTWMGLSDPEGAWKWVDGTDYATGFQNWKPGQPDDWQGHGLGGGEDCAHFHPDGRWNDDVCQRPYHWVCEAGLGQTSQESH
glycan array binding signal (z-score) [1]: -0.368 | glycan array binding signal (z-score) [2]: -0.297 | glycan array binding signal (z-score) [3]: -0.311 | glycan array binding signal (z-score) [4]: -0.293 | glycan array binding signal (z-score) [5]: -0.291 | glycan array binding signal (z-score) [6]: -0.351 | glycan array binding signal (z-score) [7]: -0.316 | glycan array binding signal (z-score) [8]: -0.329 | glycan array binding signal (z-score) [9]: -0.274 | glycan array binding signal (z-score) [10]: -0.359 | glycan array binding signal (z-score) [11]: -0.649 | glycan array binding signal (z-score) [12]: -0.324 | glycan array binding signal (z-score) [13]: -0.303 | glycan array binding signal (z-score) [14]: -0.268 | glycan array binding signal (z-score) [15]: -0.28 | glycan array binding signal (z-score) [16]: -0.417 | glycan array binding signal (z-score) [17]: 0.176 | glycan array binding signal (z-score) [18]: -0.301
